Measured values as given in PMC6919601, “Identification of Plasmodium dipeptidyl aminopeptidase allosteric inhibitors by high throughput screening” (PLoS ONE, 2019).
The campaign covered roughly 110,000 compounds. About 230 (0.21%) showed an effect of 50% or more. Some of the results follow.

Biological target: DPAP1 (Plasmodium falciparum, UniProt Q8IIJ9)
Test: primary screen, percent inhibition; read by cleavage of a fluorogenic dipeptide substrate; higher = more effect of the substance
Design: species or system P. falciparum D10 trophozoite lysates; single well
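Also: 30 min substrate incubation versus DMSO and 10 µM JCP410 controls.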

Chain of DPAP1 (Q8IIJ9 whole entry, looked up): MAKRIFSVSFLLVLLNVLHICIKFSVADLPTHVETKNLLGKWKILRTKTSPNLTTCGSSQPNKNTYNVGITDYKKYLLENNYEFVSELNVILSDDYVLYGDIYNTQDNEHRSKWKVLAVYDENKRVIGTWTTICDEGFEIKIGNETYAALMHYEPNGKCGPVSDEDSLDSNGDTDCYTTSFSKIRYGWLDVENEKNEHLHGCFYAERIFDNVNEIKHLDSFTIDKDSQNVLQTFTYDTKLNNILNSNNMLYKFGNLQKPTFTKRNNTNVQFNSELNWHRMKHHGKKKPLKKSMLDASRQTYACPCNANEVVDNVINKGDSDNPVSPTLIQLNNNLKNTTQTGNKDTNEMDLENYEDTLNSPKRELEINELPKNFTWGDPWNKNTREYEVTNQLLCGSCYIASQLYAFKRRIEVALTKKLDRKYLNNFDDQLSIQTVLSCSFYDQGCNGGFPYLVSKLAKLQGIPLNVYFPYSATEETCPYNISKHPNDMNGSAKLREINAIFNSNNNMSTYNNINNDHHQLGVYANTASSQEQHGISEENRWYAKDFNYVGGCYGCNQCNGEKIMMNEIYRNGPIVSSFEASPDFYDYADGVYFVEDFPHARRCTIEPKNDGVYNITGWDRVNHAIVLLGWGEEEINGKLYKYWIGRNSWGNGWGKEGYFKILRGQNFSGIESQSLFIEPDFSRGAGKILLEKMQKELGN

| Compound | % Inhibition @ 10 uM [%] |
| --- | --- |
| C=CCc1cc(C=C2C(=O)c3ccccc3C2=O)cc(OC)c1OCC(=O)O | 1.84 |
| O=C(CNS(=O)(=O)c1ccc(Cl)cc1)N1CCN(C(c2ccccc2)c2ccccc2)CC1 | -0.469 |
| CN(C1CCS(=O)(=O)C1)S(=O)(=O)c1ccc(Cl)cc1 (centres unmarked) | -2.91 |
| CCNCC(=O)N1c2ccccc2CCc2ccc(NC(C)=O)cc21 | 4.63 |
| O=C(O)CCn1[nH]c(=O)ccc1=O | -3.53 |
| OCCC1CCCCN1Cc1ccc2c(c1)OCO2 (centres unmarked) | -5.11 |
| CCC(NC(=O)Nc1ccc(C)cc1C)(C(F)(F)F)C(F)(F)F | 2.58 |
| O=c1/c(=C\c2ccc(Br)cc2)sc2nc3ccccc3n12 | 0.634 |
| Cc1cc(C)nc(NC(=O)CCSCCC(=O)Nc2cc(C)cc(C)n2)c1 | 5.42 |
| COC(=O)c1sc2nc3n(c(=O)c2c1C)N=C(c1cc2cc(Cl)ccc2oc1=O)CS3 | 0.759 |
| O=C(O)c1cc(-c2cccc(O)c2)nc2ccc(Br)cc12 | -2.78 |
| CN(C)c1nc(N)nc(COC(=O)c2ccc(-n3cnnc3)cc2)n1 | 1.76 |
| Cc1ccc(-n2nc(C)c(/C=N/c3ccc(S(=O)(=O)Nc4nc(C)cc(C)n4)cc3)c2O)c(C)c1 | 5.58 |
| Cc1ccc2cc(C)c(NCc3ccccn3)nc2c1 | 5.16 |
| N#CCC(=O)NCCc1ccccc1 | 3.04 |
| O=C(Nc1ccccc1Br)c1ccc(-c2ccccc2)cc1 | 0.605 |
| O=C1C=C(N2CCN(Cc3ccccc3)CC2)C(=O)N1c1ccc(Cl)cc1 | 1.4 |
| COc1cc2c(cc1OC)CN(Cc1ccc(C)o1)CC2 | 2.06 |
| Cc1ccc(N2C(=O)CC(N3CCCN(C)CC3)C2=O)cc1 (centres unmarked) | 4.33 |
| COc1cc(CNS(=O)(=O)c2ccc(CN3C(=O)c4ccccc4C3=O)cc2)cc(OC)c1OC | 5.98 |
| COc1cc2c(cc1OC)C(c1cccc(O)c1)NCC2 (centres unmarked) | -5.5 |
| CC(=O)N(CN1C(=O)c2ccc(Br)cc2C1=O)c1ccc(Cl)cc1 | -4.82 |
| O=S(=O)(c1cccc2cccnc12)N1CCOCC1 | -0.687 |
| Cc1nc(S)nc(O)c1Cc1ccccc1 | 0.146 |
| COc1ccccc1NC(=O)c1cccc(C(=O)Nc2ccccc2OC)c1 | -13.3 |

| Compound | % Inhibition @ 10 uM [%] |
| --- | --- |
| CCOC(=O)c1c(NC(=O)c2cc(S(N)(=O)=O)c(Cl)cc2Cl)sc2c1CCCC2 | 2.26 |
| CCOc1ccc(/C=C(\C#N)c2nc3ccccc3[nH]2)cc1OC | -2.07 |
| CCc1ccc(C2CC(c3ccc(OC)c(OC)c3OC)n3ncnc3N2)cc1 (centres unmarked) | 3.32 |
| Nc1c(C(=O)c2ccc(Br)cc2)sc2nc(-c3cccnc3)ccc12 | 0.605 |
| Cc1cccc(C(=O)Nc2cccc(-c3cn4ccsc4n3)c2)c1 | 3.05 |
| COc1ccc(NC(=O)c2cc(Cl)ccc2NC(=O)c2ccco2)cc1 | -6.77 |
| CC(C)n1cc(/C=C2\Sc3ccccc3C2=O)c2ccccc21 | -5.38 |
| O=C(CC1NCCNC1=O)Nc1cccc(C(F)(F)F)c1 (centres unmarked) | -12.2 |
| N#Cc1c(-c2ccccc2)oc2c1C(=O)c1ccccc1C2=O | -2.15 |
| CCCS(=O)(=O)c1c(S(=O)(=O)CCC)c2ccccn2c1C(=O)c1ccc(F)cc1 | 0.231 |
| O=S1(=O)C(/C=N/Cc2ccc3c(c2)OCO3)=C(O)c2sccc2N1Cc1ccccc1 | 7.46 |
| c1ccc(-c2cc(N3CCOCC3)n3cnnc3n2)cc1 | 0.895 |
| CCOc1cc(/C=C2/NC(=O)N(Cc3ccccc3)C2=O)c(Br)cc1O | -8.02 |
| COc1ccc(/C=C(\C#N)C(=O)Nc2ncc(Cc3cccc(Cl)c3)s2)cc1OC | 11.1 |
| COc1ccc2cc(Br)ccc2c1CC(=O)N1CCOCC1 | -4.75 |
| O=C(Nc1c2c(nn1-c1ccc(F)cc1)CSC2)c1ccccc1C(F)(F)F | -3.83 |
| Cc1ccc2cnn(CC(=O)NCCN3CCOCC3)c2c1 | -2.88 |
| CC(=O)c1c(C(C)=O)c(C)n(-c2ccc(N)cc2)c1C | -2.03 |
| COc1ccc(/C=C(\C#N)C(N)=S)cc1 | -2.51 |
| Clc1cccc(N2CCN(Cc3ccc(Br)s3)CC2)c1 | 3.16 |
| COc1ccc(NC(=O)Nc2ccc3oc(C)nc3c2)cc1 | -8.92 |
| Cc1c(-c2cccc(Cl)c2)nc2ccccc2c1C(=O)N1CCOCC1 | -5.29 |
| CCC(C)NC(=O)C1CCN(c2nn3c(=O)cc(C)nc3s2)CC1 (centres unmarked) | -0.281 |
| CC(C)Cn1c2c(c(=O)[nH]c1=O)C(C(F)(F)F)(C(F)(F)F)NC(c1cccc(Cl)c1)=N2 | 0.413 |
| O=C(O)CNC(=S)N(Cc1ccccc1)Cc1ccccc1F | -3.78 |
